Reference: PubChem BioAssay (NCATS)
Inconclusive means that the source gave no clear call. Such entries were picked first, then a sample of the others. For some of these results: Where the call is inconclusive, the potency comes from a doubtful curve fit. Active and inactive are the calls of the source. The call rests on the fitted dose curve; in most records, active means well fitted curve in the direction sought with a large enough effect; inconclusive means small, poorly fitted or top-dose-only effect, or another doubt; inactive means no such curve, though single readings can be large; an effect the other way counts as inactive or inconclusive.

Tests used:
[1] = qHTS of pediatric cancer cell lines to identify multiple opportunities for drug repurposing: Primary screen for BT-37 cells (AID 1347094); further: potency means the concentration at half of the fitted maximal effect
How it was run: (§1)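 Cells plated at 500-1,000/well in growth medium, compounds added after 5 h. MIPE tested at 11 points (from 0.78 nM), NPC at 8 points (from 0.59 nM). CellTiter-Glo luminescence after 48 h; concentration-response curves from primary screen.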

[2] = qHTS of pediatric cancer cell lines to identify multiple opportunities for drug repurposing: Primary screen for Saos-2 cells (AID 1347097); further: nearly all actives have a fitted effect of over 40% in size; further: potency means the concentration at half of the fitted maximal effect
How it was run: as §1

[3] = qHTS of pediatric cancer cell lines to identify multiple opportunities for drug repurposing: Primary screen for NB1643 cells (AID 1347099); further: nearly all actives have a fitted effect of over 50% in size; further: potency means the concentration at half of the fitted maximal effect
How it was run: as §1

[4] = qHTS of pediatric cancer cell lines to identify multiple opportunities for drug repurposing: Primary screen for BT-12 cells (AID 1347101); further: nearly all actives have a fitted effect of over 25% in size; further: potency means the concentration at half of the fitted maximal effect
How it was run: (§2)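 Cells (500-1,000/well) rested 5 h, then received compounds for 48 h; metabolically active cells were measured by CellTiter-Glo luminescence. Final concentrations spanned up to 46 µM (MIPE, 11-point) or 0.59 nM-46 µM (NPC, 8-point) in primary screens, 11-point in follow-ups.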

[5] = qHTS of pediatric cancer cell lines to identify multiple opportunities for drug repurposing: Primary screen for OHS-50 cells (AID 1347103); further: nearly all actives have a fitted effect of over 40% in size; further: potency means the concentration at half of the fitted maximal effect
How it was run: as §2

[6] = qHTS of pediatric cancer cell lines to identify multiple opportunities for drug repurposing: Primary screen for RD cells (AID 1347104); further: nearly all actives have a fitted effect of over 55% in size; further: potency means the concentration at half of the fitted maximal effect
How it was run: as §1

[7] = qHTS of pediatric cancer cell lines to identify multiple opportunities for drug repurposing: Primary screen for Rh30 cells (AID 1347107); further: nearly all actives have a fitted effect of over 75% in size; further: potency means the concentration at half of the fitted maximal effect
How it was run: (§3)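 Viability after 48 h compound treatment at 37C, 500-1,000 cells/well, read as ATP luminescence with CellTiter-Glo. Primary screens used 11-point (MIPE, 0.78 nM-46 µM) or 8-point (NPC, 0.59 nM-46 µM) final concentrations; follow-up screens used 11-point dilutions.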

[8] = qHTS of pediatric cancer cell lines to identify multiple opportunities for drug repurposing: Primary screen for Rh41 cells (AID 1347108); further: nearly all actives have a fitted effect of over 70% in size; further: potency means the concentration at half of the fitted maximal effect;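 on activity change, negative = cytotoxic: luminescence drop marks cytotoxic hits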
How it was run: as §1

[9] = qHTS of pediatric cancer cell lines to identify multiple opportunities for drug repurposing: Primary screen for SK-N-SH cells (AID 1347098); further: potency means the concentration at half of the fitted maximal effect; nearly all actives have a fitted effect of over 65% in size
How it was run: as §2

[10] = qHTS of pediatric cancer cell lines to identify multiple opportunities for drug repurposing: Primary screen for control Hh wild type fibroblast cells (AID 1347106); further: nearly all actives have a fitted effect of over 55% in size; further: potency means the concentration at half of the fitted maximal effect;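 on activity change, negative = cytotoxic: a drop in luminescence marks cytotoxicity and a rise apparent proliferation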
How it was run: as §3

[11] = qHTS of pediatric cancer cell lines to identify multiple opportunities for drug repurposing: Primary screen for NB-EBc1 cells (AID 1347095); further: potency means the concentration at half of the fitted maximal effect
How it was run: as §1

[12] = qHTS of pediatric cancer cell lines to identify multiple opportunities for drug repurposing: Primary screen for U-2 OS cells (AID 1347096); further: nearly all actives have a fitted effect of over 50% in size; further: potency means the concentration at half of the fitted maximal effect
How it was run: as §3

[13] = qHTS of pediatric cancer cell lines to identify multiple opportunities for drug repurposing: Primary screen for LAN-5 cells (AID 1347100); conditions: LAN-5 neuroblastoma viability, CellTiter-Glo luminescence, 48 h; activity change, negative = cytotoxic: at 46 µM (top of the series); further: potency means the concentration at half of the fitted maximal effect
How it was run: as §3

[14] = qHTS of pediatric cancer cell lines to identify multiple opportunities for drug repurposing: Primary screen for MG 63 (6-TG R) cells (AID 1347105); conditions: MG 63 (6-TG R) viability, CellTiter-Glo, 48 h; activity change, negative = cytotoxic: at 46 µM (top of the series); further: nearly all actives have a fitted effect of over 50% in size
How it was run: as §1

[15] = qHTS of pediatric cancer cell lines to identify multiple opportunities for drug repurposing: Primary screen for Rh18 cells (AID 1347102); further: potency means the concentration at half of the fitted maximal effect; nearly all actives have a fitted effect of over 65% in size
How it was run: as §3

[16] = qHTS of pediatric cancer cell lines to identify multiple opportunities for drug repurposing: Confirmatory screen for NB1643 cells (AID 1347109); conditions: NB1643 neuroblastoma cell viability; activity change, negative = cytotoxic: at 45.9 µM (top of the series); further: potency means the concentration at half of the fitted maximal effect; nearly all actives have a fitted effect of over 45% in size
How it was run: as §3

[17] = qHTS of pediatric cancer cell lines to identify multiple opportunities for drug repurposing: Primary screen for SK-N-MC cells (AID 1347093); conditions: SK-N-MC viability, CellTiter-Glo luminescence, 48 h; activity change, negative = cytotoxic: at 46 µM (top of the series)
How it was run: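 Metabolically active cells were quantified by ATP-dependent luminescence (CellTiter-Glo, 15 min at room temperature) following 48 h treatment. Cells had been plated at 500-1,000 per well and settled for 5 h beforehand.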

Measured: Potency
Tags describe the fitted curve by direction and shape.

COCCCOc1ccnc(CS(=O)c2nc3ccccc3[nH]2)c1C (stereo unspecified)
inactive: [1] | [2] | [3] | [4] | [6] | [7]
inconclusive: [5] 27.3 µM [cytotoxic, single point]

COc1cc2nc(N(C)CCCNC(=O)C3CCCO3)nc(N)c2cc1OC (stereo unspecified)
inconclusive: [1] 17.4 µM [cytotoxic, single point] | [8] 16.8 µM [cytotoxic, partial curve, poor fit]

Cc1oc(=O)oc1CN1CCN(c2cc3c(cc2F)c(=O)c(C(=O)O)c2n3C(C)S2)CC1 (stereo unspecified)
inactive: [5] | [10]
inconclusive: [1] 34.7 µM [cytotoxic, single point] | [9] 24.1 µM [cytotoxic, partial curve] | [3] 18.7 µM [cytotoxic, partial curve] | [7] 16.6 µM [cytotoxic, partial curve, poor fit]

Cn1cnc2c(F)c(Nc3ccc(Br)cc3F)c(C(=O)NOCCO)cc21
inactive: [2] | [3] | [8]
inconclusive: [11] 0.0935 µM [cytotoxic, full curve] | [12] 14.8 µM [cytotoxic, partial curve, poor fit] | [9] 27.1 µM [cytotoxic, single point] | [13] 6.62 µM [cytotoxic, partial curve] | [4] 15.3 µM [cytotoxic, partial curve] | [6] 0.0935 µM [cytotoxic, full curve]

O=C(CN1C(=O)C2(CCCC2)NC[C@H]1c1cc(F)cc(F)c1)Nc1ccc2c(c1)C[C@@]1(C2)C(=O)Nc2ncccc21
inactive: [1] | [3] | [6]

O=C(O)c1cn(C2CC2)c2cc(N3CCNCC3)c(F)cc2c1=O
inactive: [11] | [14] | [8]

Nc1ccccc1NC(=O)c1ccc(CNc2nccc(-c3cccnc3)n2)cc1
inconclusive: [16] 0.928 µM [cytotoxic, full curve, poor fit]
active: [1] 3.06 µM | [12] 4.69 µM | [2] 2.35 µM | [3] 0.296 µM | [13] 0.743 µM | [15] 2.09 µM | [5] 0.968 µM | [10] 14.8 µM | [8] 1.18 µM

CCCOc1ccc(C(=O)OCCN(CC)CC)cc1N
inactive: [17] | [6] | [10]

O=C(O)C(=O)Nc1cccc(C2=NN=N[N]2)c1
inactive: [1]

CN(C)CCCNC(=O)c1ccc(-c2cc(O)c3ncccc3c2)cc1
inconclusive: [1] 19.3 µM [cytotoxic, partial curve] | [11] 33.2 µM [cytotoxic, single point] | [2] 4.18 µM [cytotoxic, partial curve] | [9] 27.1 µM [cytotoxic, partial curve] | [3] 29.6 µM [cytotoxic, single point] | [4] 24.3 µM [cytotoxic, partial curve] | [5] 24.3 µM [cytotoxic, partial curve] | [6] 18.7 µM [cytotoxic, single point] | [10] 9.35 µM [cytotoxic, partial curve] | [7] 20.9 µM [cytotoxic, partial curve] | [8] 13.2 µM [cytotoxic, partial curve]

CCOCC(O)COc1ccc(NC(=O)CC[S+](C)C)cc1 (stereo unspecified)
inactive: [1] | [4]

CCN1CCCC1CNC(=O)c1cc(S(=O)(=O)CC)c(N)cc1OC (stereo unspecified)
inconclusive: [1] 19.3 µM [cytotoxic, partial curve] | [3] 23.5 µM [cytotoxic, single point]
inactive: [12] | [14]
